Screen size: about 410,000 compounds; about 310 (0.076%) were called active. The shares of active, inactive and inconclusive entries below differ from those in the screen. The call rests on the fitted dose curve; in most records, active means well fitted curve in the direction sought with a large enough effect; inconclusive means small, poorly fitted or top-dose-only effect; inactive means flat fitted curve, though single readings scatter. Potencies beside an inconclusive call are fits to weak or partial responses and may not hold up.
These molecules were tested against DNA dC->dU-editing enzyme APOBEC-3G (Homo sapiens) (UniProt Q9HC16) (assay: qHTS for Inhibitors of Vif-A3G Interactions: qHTS). Conditions: HeLa A3G-eYFP + Vif (tagged APOBEC3G with the HIV-1 protein that degrades it), YFP fluorescence, overnight; series mostly up to 46.1 µM.
UniProt Q9HC16, sequence (Q9HC16 whole entry, looked up): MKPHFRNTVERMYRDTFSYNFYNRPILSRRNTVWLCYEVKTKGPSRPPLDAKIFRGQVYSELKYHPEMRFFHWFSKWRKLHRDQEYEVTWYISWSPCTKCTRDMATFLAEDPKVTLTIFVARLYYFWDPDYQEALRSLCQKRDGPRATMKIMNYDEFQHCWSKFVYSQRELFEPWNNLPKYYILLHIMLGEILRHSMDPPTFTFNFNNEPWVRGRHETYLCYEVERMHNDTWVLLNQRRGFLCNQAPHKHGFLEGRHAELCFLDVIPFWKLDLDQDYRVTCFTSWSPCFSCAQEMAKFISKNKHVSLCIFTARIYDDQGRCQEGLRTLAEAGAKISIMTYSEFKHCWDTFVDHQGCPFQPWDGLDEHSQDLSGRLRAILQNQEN
Description: The recent discovery and characterization of host restriction factors, which provide a potent defense to invading retroviruses, has provided new targets for antiviral drug development. APOBEC3G (A3G) and APOBEC3F (A3F) are potent cytidine deaminases that block HIV-1 replication; HIV-1 expresses the Vif protein, which counteracts A3G and A3F by binding to them and inducing their proteasomal degradation. The Vif-A3G and Vif-A3F interactions provide two potential targets for development of small molecules which can interfere with the ability of Vif to degrade A3G or A3F. […] To identify inhibitors that can interfere with Vif mediated degradation of A3G and A3F, we have developed Hela cell lines that stably express A3G or A3F tagged with eYFP at the C-terminal end (A3G-eYFP or A3F-eYFP, respectively) and Vif. In the absence of an inhibitor, Vif induces degradation of A3G-eYFP and A3F-eYFP, and the cells are not fluorescent. In the presence of an inhibitor, it is expected that Vif will be unable to degrade A3G-eYFP and/or A3F-eYFP, resulting in an increase in yellow fluorescence. In this assays Vif A3G was screened against the Molecular Library Small Molecule Repository (MLSMR). NIH Chemical Genomics Center [NCGC] NIH Molecular Libraries Probe Centers Network [MLPCN] MLPCN Grant: MH093245 Assay Submitter (PI): Vinay Pathak, National Cancer Institute
5 uL of 700 cells/well of A3G-YFP cells are dispensed into black, clear bottom plates. The plates are incubated overnight at 37 deg C. 23 nL of compounds are added by pintool. The plates are incubated overnight at 37 deg C and then read on the TTP Acumen (Ex 488/ Em 500-530).
Further: nearly all actives have a fitted effect of over 60% in size.
Potency means the concentration at half of the fitted maximal effect; tags describe the fitted curve by direction and shape.

Compound | Potency
O=C1C=CC2C3C(=O)N(c4ccccc4)C(=O)C3C1N2Cc1ccccc1 (configuration not stated) | inconclusive: 10 µM [inhibitor, partial curve]
Cc1ccsc1/C=C1\C(=O)NC(=S)N(C)C1=O | inactive
O=C1NC(=S)NC(=O)C1c1ccccc1 | inactive
CCCCCSc1cc(OC)c(CCN)cc1OC | inconclusive: 12.6 µM [inhibitor, single point]
CN1/C(=C\C=C2C(=O)NC(=O)NC2=O)C(C)(C)c2ccccc21 | inconclusive: 2.51 µM [inhibitor, full curve, poor fit]
O=C(Cc1ccccc1)N1CCN(CCCc2ccccc2)CC1 | inactive
Cc1ccc(/C=C2\C(=O)NC(=O)N(Cc3ccccc3Cl)C2=O)o1 | inconclusive: 35.5 µM [inhibitor, single point]
O=C1NC(=O)N(Cc2ccccc2)C(=O)/C1=C/c1cnc(-c2ccccc2)nc1 | inconclusive: 35.5 µM [inhibitor, single point]
N#CC(C#N)=NNc1ccc(S(N)(=O)=O)cc1 | inactive
CC(=O)OC(C)(C)/C=C/C(=O)[C@](C)(O)C1[C@H](O)C[C@@]2(C)C3CC=C4C(C[C@H](O)C(=O)C4(C)C)[C@]3(C)C(=O)C[C@]12C (some centres not stated) | inconclusive: 0.398 µM [inhibitor, partial curve, poor fit]
COc1ccc(NC2Oc3cc4c(cc3C(c3cc(OC)c(OC)c(OC)c3)C2C)OCO4)cc1 (configuration not stated) | inconclusive: 0.562 µM [inhibitor, full curve, poor fit]
O=C1NC(=O)N(c2ccc3c(c2)OCO3)C(=O)/C1=C\c1ccc(-c2ccccc2C(=O)O)o1 | inactive
CC[C@@H](C(=O)[C@@H](C)[C@@H](O)[C@H](C)[C@@H]1O[C@@H]([C@@H](CC)C(=O)O)CC[C@@H]1C)[C@H]1O[C@]2(C=C[C@@H](O)[C@]3(CC[C@@](C)([C@H]4CC[C@](O)(CC)[C@H](C)O4)O3)O2)[C@H](C)C[C@@H]1C | inconclusive: 8.91 µM [inhibitor, partial curve, poor fit]
COc1cc(/C=C/c2nc3ccccc3c(=O)n2-c2ccc(O)cc2)ccc1O | inconclusive: 22.4 µM [inhibitor, single point]
O=C(Cc1ccccc1)c1ccccn1 | inconclusive: 17.8 µM [inhibitor, partial curve, poor fit]
CCN(CC)c1ccc2c(cc1=O)[C@@H](NC)CCc1cc(OC)c(OC)c(OC)c1-2 | inconclusive: 1.12 µM [inhibitor, full curve, poor fit]
CN1C(=O)C(=Cc2ccc(N3CCCCC3)o2)C(=O)N(C)C1=S | inconclusive: 2.24 µM [inhibitor, partial curve, poor fit]
COc1cc(C2C(C#N)=C(N)Oc3cc(O)ccc32)cc(OC)c1OC (configuration not stated) | inconclusive: 1.41 µM [inhibitor, full curve]
O=C(CCn1c(=O)oc2ccccc21)N1CCN(c2ccccc2Cl)CC1 | inconclusive: 3.55 µM [inhibitor, full curve]
O=C1CN=C(c2cccs2)c2c(sc3c2CCCC3)N1 | inconclusive: 3.55 µM [inhibitor, full curve]
Cc1cccc(N2C(=O)NC(=O)/C(=C\C=C\c3ccco3)C2=O)c1 | inconclusive: 11.2 µM [inhibitor, partial curve, poor fit]

Compound | Potency
O=C(CCN1CC2CCC(CC2)C1)c1cccs1 | inactive
Clc1ccc(-c2csc3ncnc(Sc4nnnn4C4CC4)c23)cc1 | inconclusive: 12.6 µM [inhibitor, partial curve]
CN1CCN(c2ccccc2N)CC1 | inactive
Cc1ccc(N2C(=O)NC(=O)/C(=C\C=C\c3ccco3)C2=O)cc1 | inconclusive: 15.8 µM [inhibitor, single point]
O=C1/C(=C/c2ccc(N(CCCl)CCCl)cc2)Cc2ccccc21 | inconclusive: 17.8 µM [inhibitor, single point]
Cn1c(O)c(C=NCCN2CCOCC2)c(=O)n(C)c1=S | inconclusive: 15.8 µM [inhibitor, single point]
NC(=Nc1ccccc1)NN=Cc1c[nH]c2ccccc12 | inconclusive: 1.58 µM [inhibitor, full curve, poor fit]
CCOP(=O)(Nc1ccc2c(c1)C(=NNC(N)=S)c1ccccc1-2)OCC | inconclusive: 35.5 µM [inhibitor, single point]
Nc1cc(Cl)c2nonc2c1[N+](=O)[O-] | inconclusive: 3.55 µM [inhibitor, full curve, poor fit]
N#Cc1ccccc1NC(=O)c1cccn(Cc2ccccc2)c1=O | inactive
CCN(CC)c1ccc(C=C2C(=O)NC(=S)NC2=O)cc1 | inconclusive: 35.5 µM [inhibitor, single point]
CC(C)Oc1ccc(CNC(=O)Oc2ccccc2)cc1 | inconclusive: 17.8 µM [inhibitor, single point]
C=C1C(=O)OC2CC(C)C3C=CC(=O)C3(C)C(O)C12 (configuration not stated) | inconclusive: 0.562 µM [inhibitor, full curve, poor fit]
COc1ccccc1-n1c(/C=C/c2ccccc2)nc2ccccc2c1=O | inactive
C=CCOc1c(Cl)cc(CNc2ccc3[nH]c(=O)[nH]c3c2)cc1OC | inconclusive: 11.2 µM [inhibitor, single point]
CCOC(=O)C/C(C)=N/NC(=O)COc1ccccc1C | inconclusive: 35.5 µM [inhibitor, partial curve, poor fit]
COc1ccc(-n2c(/C=C/c3ccc(O)c(O)c3)nc3ccccc3c2=O)cc1 | inconclusive: 11.2 µM [inhibitor, partial curve, poor fit]
CC(=O)OC1C2(CC3N4C(=O)C5(CO)SSC4(CC31O)C(=O)N5C)OC(C)C(C)(C)C2=O (configuration not stated) | inconclusive: 2 µM [inhibitor, full curve, poor fit]
CNCC(O)c1cc(OCc2ccccc2)c(OCc2ccccc2)cc1F (configuration not stated) | inconclusive: 25.1 µM [inhibitor, partial curve, poor fit]
O=C1CN=C(c2ccccc2)c2c(sc3c2CCCC3)N1 | inconclusive: 4.47 µM [inhibitor, partial curve]
CCCCn1c(O)c(C(=O)/C=C/c2c[nH]c3ccccc23)c(=O)[nH]c1=O | active: 3.16 µM

Compound | Potency
NC(Cc1ccccc1)c1csc(Nc2ccccn2)n1 (configuration not stated) | inconclusive: 35.5 µM [inhibitor, single point]
C=CCN1C(=O)/C(=C/c2ccc(Br)s2)C(=O)NC1=S | inconclusive: 22.4 µM [inhibitor, single point]
CC1=CC(=Cc2sc3ccccc3[n+]2C)C=C(C)O1 | inconclusive: 15.8 µM [inhibitor, partial curve, poor fit]
O=C(/C=C/c1c[nH]c2ccccc12)c1c(O)n(CCc2ccccc2)c(=O)[nH]c1=O | inconclusive: 2.51 µM [inhibitor, partial curve, poor fit]
COC(=O)C1=C(c2ccccc2OCc2ccccc2)C[C@@H]2CC[C@H]1N2C(=O)NCc1ccc(C(F)(F)F)cc1 | inactive
CCC(CC)C1C(C#N)=C(N)Oc2c1c(=O)oc1ccccc21 (configuration not stated) | inconclusive: 17.8 µM [inhibitor, single point]
C=C(C=O)C[C@@H]1C[C@H](O)C2OC3C[C@]4(C)OC5/C=C\CC6OC7C(CC=CCC6OC5CCCC4OC3CC2O1)OC1CC2OC3CC(=O)OC3C[C@@H](C)C[C@@]2(C)OC1C[C@@H]7C (some centres not stated) | inconclusive: 10 µM [inhibitor, partial curve, poor fit]
COc1cc(CN2CCNCC2)cc(OC)c1OC | inactive
CN1C(=O)C(=Cc2sc(=O)n(-c3ccccc3)c2N2CCCCC2)C(=O)N(C)C1=O | inconclusive: 15.8 µM [inhibitor, single point]
Cn1cc(C=C(C#N)C#N)c2ccccc21 | inconclusive: 35.5 µM [inhibitor, single point]
NN=C1C(Cl)=C(Cl)C(Cl)=C1Cl | inconclusive: 35.5 µM [inhibitor, single point]
CCn1c(C)cc(/C=C2\C(=O)NC(=O)N(c3ccccc3C)C2=O)c1C | inactive
Cc1cc2c(cc1C)NP(=S)(c1ccccc1)N2 | inactive
Cc1ccc(Cn2c(SCc3ccc(C(=O)NC4CCCC4)cc3)nc3ccncc32)cc1 | inconclusive: 20 µM [inhibitor, partial curve, poor fit]
O=c1[nH]c(=O)n(Cc2ccccc2Cl)c(O)c1/C=C1/C=CC=N1 | inconclusive: 15.8 µM [inhibitor, partial curve, poor fit]
CCOc1ccccc1-n1c(O)c(C=Nc2ccc(N(CC)CC)cc2)c(=O)[nH]c1=O | inconclusive: 11.2 µM [inhibitor, partial curve]
C=CC[C@@H](CC/C=C/C=C/CC/C=C\[C@@H]1CSC([C@@H]2C[C@@H]2C)=N1)OC | inconclusive: 1 µM [inhibitor, partial curve, poor fit]
O=c1[nH]c(=O)n(-c2ccccc2)c(O)c1/C=C1/C(c2ccccc2)=Nc2ccccc21 | inconclusive: 2.24 µM [inhibitor, full curve]
CC1=CC2/C=C(\C)CCC(O)C(O)/C=C/C(=O)C23C(=O)NC(CC(C)C)C3C1C (configuration not stated) | inconclusive: 5.62 µM [inhibitor, partial curve]
O=C(c1ccc2c(c1)ncn2C1CCCCCC1)N1CCC2(CC1)OCCO2 | inconclusive: 17.8 µM [inhibitor, single point]

Reference: PubChem BioAssay AID602310 (National Center for Advancing Translational Sciences (NCATS), 2012)
